The record followed here is PubChem BioAssay AID1240 (Sanford-Burnham Center for Chemical Genomics, 2008).

The whole screen tested about 50,000 compounds, of which about 800 (1.6%) showed an effect of 50% or more. This is one part of the list.

In the experiment the target is Bcl-2-like protein 10 (Homo sapiens) (UniProt Q9HD36). Nature of the experiment: Phenotype converters, Bcl-B/TR3 peptide binding displacement, primary biochemical FP (AID 1240).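 Note: 0% = Bcl-B with tracer peptide and DMSO and 100% = tracer peptide lacking Bcl-B.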 As to conditions: GST-Bcl-B / FITC-TR3 peptide fluorescence polarization; stronger effect = higher value; compound at 3.75 mg/L. For orientation: Polarisation of emitted light reports the rotation of a fluorescent probe.
UniProt Q9HD36, sequence (Q9HD36 whole entry, looked up): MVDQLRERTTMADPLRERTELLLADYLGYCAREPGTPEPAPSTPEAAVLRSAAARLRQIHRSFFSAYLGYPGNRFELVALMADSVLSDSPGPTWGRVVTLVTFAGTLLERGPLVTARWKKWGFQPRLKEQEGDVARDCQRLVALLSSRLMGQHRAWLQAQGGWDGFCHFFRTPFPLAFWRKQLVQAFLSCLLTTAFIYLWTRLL
With `CC(=O)Nc1cccc(N=Cc2ccccc2O)c1`, the displacement amounted to 11.5%.

As for `COc1cc(Sc2ccccc2[N+](=O)[O-])ccc1N`, the displacement is 10.1%.

For the compound `O=C1C2C(C(=O)N1/N=C/c1ccc(Cl)cc1Cl)C1C=CC2C12CC2` (stereo not given), the displacement came to 4.5%.

As for `CC12CC3CC(C1)CC(NC(=O)c1ccccn1)(C3)C2`, the displacement was 2.7%.

Regarding `Cc1ccc(C)c(NC(=O)/C=C/c2ccc3c(c2)OCO3)c1`, the displacement is -12.8%.

Turning to `N#CC1C(=O)NC(=S)C(C#N)C12CCC(c1ccccc1)CC2` (stereo not given), the displacement was -23.5%.

As to `O=C(O)CN1C(=O)/C(=C\c2cc([N+](=O)[O-])cc(Br)c2O)SC1=S`, the displacement is -73.9%.

As for `COc1cccc(C2C(C(=O)Nc3ccccc3)=C(C)N=c3s/c(=C\c4c[nH]c5ccccc45)c(=O)n32)c1` (stereo not given), the displacement was 113%.

Turning to `O=C(NC(=S)Nc1ccccc1[N+](=O)[O-])c1ccccc1Cl`, the displacement is -14%.

Consider `COCCOC(=O)C1=C(C)NC(C)=C(C(=O)OCCOC)C1c1cn(-c2ccccc2)nc1-c1ccc(F)cc1`, for which the displacement stood at 6.2%.

Turning to `COc1ccc(C(=O)Nc2cccc(NC(=O)c3ccc(Cl)cc3Cl)c2)cc1`, the displacement is 10.2%.

Regarding `CCOc1ccccc1C(=O)Nc1ccc(Cl)cc1[N+](=O)[O-]`, the displacement is 4.1%.

As for `Cc1cc(/C=N/n2cnnc2)c(C)n1C`, the displacement is 3.5%.

Take `O=C(Nc1ccccc1O)c1ccc2c(c1)C(=O)N(c1cccc(C(=O)c3ccccc3)c1)C2=O`: the displacement is 15%.

Regarding `O=Cc1cn(-c2ccccc2)nc1-c1ccc(Cl)cc1`, the displacement was determined as 7.5%.

Consider `O=C1CC(N=CN2CCOCC2)=NN1c1ccccc1`, for which the displacement was -7.9%.

Regarding `COC(=O)C1=C(O)/C(=C/c2cc(C)n(-c3cc(Cl)ccc3Cl)c2C)N=C1C`, the displacement came out at 22.3%.

`COc1ccc(NC2=CC(=O)CC(c3ccco3)C2)c(OC)c1` (stereo not given): the displacement was 1.9%.

With `O=C(NC(Nc1ccccc1)C(=O)c1cccs1)c1ccccc1` (stereo not given), the displacement is 7.8%.

Turning to `O=C1C(Cc2c[nH]c3ccccc23)NC(=S)N1c1ccccc1` (stereo not given), the displacement worked out at 13.7%.

On to `CCOc1ccc(N2C(=O)CSC23C(=O)Nc2ccccc23)cc1` (stereo not given), for which the displacement was determined as 6.8%.

For `Cc1onc(-c2ccccc2)c1C(=O)Nc1ccc(I)cc1`, the displacement was -0.6%.

In the case of `COC(=O)C1=C(C)N(c2ccc(C)cc2)/C(=C\c2ccc(OCC(N)=O)cc2)C1=O`, the displacement was determined as 11.7%.

As to `COc1ccc2c(c1)CC/C2=N/OC(=O)c1ccc(OC)c(OC)c1`, the displacement came to 5.7%.

`CN1C(=O)NC(=O)/C(=C\c2cccc(O)c2)C1=O`: the displacement is -6.7%.

As for `Cc1ccc(/C(O)=C2\C(=O)C(=O)N(CCCC(=O)O)C2c2cccc([N+](=O)[O-])c2)cc1` (stereo not given), the displacement was -1%.

With `Cc1ccc(C(=O)Nc2nc3ccccc3n2CCN2CCCC2)cc1`, the displacement is -2.7%.

As to `O=C1NC(c2ccccc2Cl)Nc2sc3c(c21)CCCC3` (stereo not given), the displacement was -0.9%.

In the case of `Cc1ccc(NC(=S)Nc2ccc(F)cc2)cc1C`, the displacement is -5.2%.

Regarding `CC1(C)Nc2ccc(OC(=O)c3ccccc3Br)cc2-c2c1ssc2=S`, the displacement is -5.6%.
